# Results as given in PubChem BioAssay (Tox21).
# Several values for one entry are separate records, joined by “and”; a condition that tells them apart may be missing. Equal entries are not always repeated. The inconclusive results got no clear call from the source; some entries with a clear call stand among them for comparison. For some of these results: Where the call is inconclusive, the potency comes from a doubtful curve fit. Some structures have more than one record in an assay (separate samples or runs), and their calls can disagree. Activity calls are given as the source filed them. Unless noted, calls follow the shape of the dose curve; as a rule, active = well fitted curve in the direction sought with a large enough effect in the repeat runs; inconclusive = weak or mixed curves; inactive = no such curve, though single readings can be large; an effect the other way counts as inactive or inconclusive.
# How the values were obtained:
# [1] = qHTS assay to identify small molecule antagonists of the estrogen related receptor (ERR) signaling pathway from Tox21 library - cell viability counter screen (AID 1224834); also: nearly all actives have a fitted effect of over 30% in size; also: potency is read from the fitted curve at half-maximal effect
# How it was run: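 ERR reporter cells were plated 6 h before compound addition, then exposed to test compounds in DMSO for 17.5 h at 37 C. Viability was read as CellTiter-Fluor fluorescence after a 30-minute incubation at 37 C.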
# [2] = qHTS assay to identify small molecule antagonists of the estrogen related receptor signaling pathway with the pleiotropic PPARgamma coactivator (PGC) from Tox21 10K library - cell viability counter screen (AID 1224840; active = well fitted cell-killing curve with a large enough effect in the repeat runs, not every such curve was filed as active; inconclusive = weak or mixed curves, or effect the other way; inactive = no such curve, though single readings can be large or run the other way; also: nearly all actives have a fitted effect of over 40% in size; also: potency is read from the fitted curve at half-maximal effect)
# How it was run: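 PGC/ERR cells were seeded at 2,000 cells/well and left 6 hours at 37 C/5% CO2 before pin-tool addition of compounds in DMSO. After 17.5 hours at 37 C, CellTiter-Fluor was added and fluorescence read 30 minutes later.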
# [3] = target: Thyrotropin receptor (Homo sapiens) (UniProt P16473); assay: qHTS assay to identify small molecule agonists of the thyroid stimulating hormone receptor (TSHR) signaling pathway (AID 1224843; calls by dose curve; also: nearly all actives have a fitted effect of over 45% in size; also: potency is read from the fitted curve at half-maximal effect); settings: TSHR-HEK293 cells, cAMP HTRF, agonist mode, 30 min; activation: at 92.4 µM (top of the series) unless noted
# How it was run: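 TSHR-expressing HEK293 cells (800 per well) were exposed to compounds for 30 min at room temperature. cAMP was then detected by HTRF competition with cAMP-d2 and anti-cAMP cryptate, read after 1 h at room temperature. Fifteen concentrations, triplicate.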
# [4] = qHTS assay to identify small molecule agonists of the hypoxia (HIF-1) signaling pathway - cell viability counter screen (AID 1224844; calls by dose curve; also: nearly all actives have a fitted effect of over 50% in size; also: potency is read from the fitted curve at half-maximal effect)
# How it was run: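 HRE-bla ME-180 cells in medium with 0.5% dialyzed FBS were preincubated 5 hrs at 37C, exposed to compounds for 17 hrs, then viability was read as CellTiter-Glo luminescence after 30 min at room temperature, in the reporter wells.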
# [5] = target: Nuclear receptor subfamily 1 group I member 3 (Homo sapiens) (UniProt Q14994); assay: qHTS assay to identify small molecule agonists of the constitutive androstane receptor (CAR) signaling pathway (AID 1224839); also: nearly all actives have a fitted effect of over 15% in size; also: potency is read from the fitted curve at half-maximal effect;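 as to activation: HepG2 cells stably carrying human CAR and a CYP2B6 luciferase reporter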
# How it was run: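 HepG2-CYP2B6-hCAR cells, 2500/well, 4 h pre-incubation; compounds 15 conc.; PK11195 0.75 uM final; 24 h, 37 C/5% CO2; ONE-Glo luciferase read.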
# [6] = qHTS assay to identify small molecule antagonists of the estrogen related receptor signaling pathway with the pleiotropic PPARgamma coactivator (PGC) from Tox21 10K library (AID 1224841; call rule not given here; also: actives are mostly falling curves and most rising ones were filed inactive; nearly all actives have a fitted effect of over 50% in size; also: potency is read from the fitted curve at half-maximal effect)
# How it was run: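 PGC/ERR reporter cells were seeded at 2,000 cells/well and held 6 hours at 37 C/5% CO2 before pin-tool addition of compounds in DMSO. After 18 hours at 37 C, One-Glo was added and luminescence read after 30 minutes at room temperature.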
# [7] = target: Luciferin 4-monooxygenase (Photinus pyralis) (UniProt P08659); assay: qHTS assay to identify small molecule inhibitors of firefly luciferase (AID 1224835); also: nearly all actives have a fitted effect of over 25% in size; also: potency is read from the fitted curve at half-maximal effect
# How it was run: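 Quantitative HTS format; KM concentrations of both substrates. Purified P. pyralis FLuc activity quantified from luminescence images.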
# [8] = qHTS assay to identify small molecule agonists of the constitutive androstane receptor (CAR) signaling pathway - cell viability counter screen (AID 1224836); also: nearly all actives have a fitted effect of over 45% in size; also: potency is read from the fitted curve at half-maximal effect
# How it was run: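 HepG2-CYP2B6-hCAR, 2500 cells/well, 4 h pre-incubation; cpd 15 conc + PK11195 0.75 uM final; 23 h, 37 C/5% CO2; CellTiter-Fluor, fluorescence.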
# [9] = qHTS assay to identify small molecule antagonists of the constitutive androstane receptor (CAR) signaling pathway - cell viability counter screen (AID 1224837); also: nearly all actives have a fitted effect of over 45% in size; also: potency is read from the fitted curve at half-maximal effect
# How it was run: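 HepG2 cells stably expressing hCAR and a CYP2B6-2.2kb reporter were plated and pre-incubated 4 hr at 37 C/5% CO2, then given compounds at 15 concentrations plus 50 nM CITCO (final). After 23 hr, viability was read by CellTiter-Fluor fluorescence.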
# [10] = target: Nuclear receptor subfamily 1 group I member 3 (Homo sapiens) (UniProt Q14994); assay: qHTS assay to identify small molecule antagonists of the constitutive androstane receptor (CAR) signaling pathway (AID 1224838); also: nearly all actives have a fitted effect of over 40% in size; also: potency is read from the fitted curve at half-maximal effect
# How it was run: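 HepG2 cells stably co-transfected with hCAR and a CYP2B6-2.2kb luciferase reporter were seeded 4 h before compound addition at 15 concentrations. Cells were stimulated with 50 nM CITCO (final) for 24 h at 37 C; luciferase luminescence was then read.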
# [11] = qHTS assay to identify small molecule agonists of the estrogen related receptor signaling pathway with the pleiotropic PPARgamma coactivator (PGC) from Tox21 10K library (AID 1224842); also: nearly all actives have a fitted effect of over 15% in size
# How it was run: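 PGC/ERR reporter cells (NTP line) were seeded 2,000 per well, rested 6 h at 37 C/5% CO2, then pin-dosed with compounds in DMSO for 18 h at 37 C; luciferase read by One-Glo luminescence after 30 min at room temperature.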
# % is scaled to controls: 0 for no effect and ±100 for the full control effect; tags tell the direction and shape of the fitted curve or compound fluorescence and quenching.
# Chain of UniProt P16473 (P16473 whole entry, looked up): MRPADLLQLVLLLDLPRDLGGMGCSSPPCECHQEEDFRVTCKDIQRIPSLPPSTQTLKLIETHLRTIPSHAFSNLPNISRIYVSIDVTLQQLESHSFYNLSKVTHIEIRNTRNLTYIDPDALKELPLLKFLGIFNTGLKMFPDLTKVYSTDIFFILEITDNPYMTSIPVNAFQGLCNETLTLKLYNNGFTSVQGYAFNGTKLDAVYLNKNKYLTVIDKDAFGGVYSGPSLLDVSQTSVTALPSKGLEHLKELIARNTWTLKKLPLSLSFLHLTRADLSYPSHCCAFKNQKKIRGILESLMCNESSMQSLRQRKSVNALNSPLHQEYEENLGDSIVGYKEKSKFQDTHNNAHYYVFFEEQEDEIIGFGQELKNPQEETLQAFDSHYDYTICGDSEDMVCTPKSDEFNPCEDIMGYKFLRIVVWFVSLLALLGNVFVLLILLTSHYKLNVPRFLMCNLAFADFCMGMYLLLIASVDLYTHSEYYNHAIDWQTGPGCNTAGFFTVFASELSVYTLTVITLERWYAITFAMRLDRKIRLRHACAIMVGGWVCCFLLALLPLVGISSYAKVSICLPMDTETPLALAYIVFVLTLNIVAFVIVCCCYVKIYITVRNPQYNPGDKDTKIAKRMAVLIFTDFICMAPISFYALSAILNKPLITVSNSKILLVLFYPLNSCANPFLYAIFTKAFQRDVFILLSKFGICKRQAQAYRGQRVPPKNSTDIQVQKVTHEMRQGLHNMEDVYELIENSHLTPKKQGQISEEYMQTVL
# Chain of UniProt Q14994 (Q14994 whole entry, looked up): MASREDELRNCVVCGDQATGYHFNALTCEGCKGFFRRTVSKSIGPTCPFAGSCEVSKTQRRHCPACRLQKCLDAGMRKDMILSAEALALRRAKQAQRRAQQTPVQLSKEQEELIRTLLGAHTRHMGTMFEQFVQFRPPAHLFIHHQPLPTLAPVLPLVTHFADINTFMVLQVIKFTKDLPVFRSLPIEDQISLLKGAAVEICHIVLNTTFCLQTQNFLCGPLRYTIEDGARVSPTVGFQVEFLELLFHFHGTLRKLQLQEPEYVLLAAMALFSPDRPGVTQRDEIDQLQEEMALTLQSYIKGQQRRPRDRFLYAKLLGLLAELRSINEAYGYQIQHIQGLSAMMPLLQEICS
# Chain of UniProt P08659 (P08659 whole entry, looked up): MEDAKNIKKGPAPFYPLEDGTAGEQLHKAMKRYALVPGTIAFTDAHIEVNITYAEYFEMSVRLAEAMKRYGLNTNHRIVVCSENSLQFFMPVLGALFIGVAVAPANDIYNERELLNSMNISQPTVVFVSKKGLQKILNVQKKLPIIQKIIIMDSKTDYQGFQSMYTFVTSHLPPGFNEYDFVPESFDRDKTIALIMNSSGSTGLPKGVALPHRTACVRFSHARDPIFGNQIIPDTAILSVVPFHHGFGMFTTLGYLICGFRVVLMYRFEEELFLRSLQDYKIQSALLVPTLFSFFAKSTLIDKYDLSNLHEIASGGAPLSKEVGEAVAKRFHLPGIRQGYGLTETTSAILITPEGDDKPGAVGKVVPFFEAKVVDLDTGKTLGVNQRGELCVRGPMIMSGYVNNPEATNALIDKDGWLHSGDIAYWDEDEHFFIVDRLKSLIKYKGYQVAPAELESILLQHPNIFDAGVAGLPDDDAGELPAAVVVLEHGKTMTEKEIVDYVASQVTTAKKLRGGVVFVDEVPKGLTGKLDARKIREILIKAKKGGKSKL
structure (smiles),measurement,setting,value
Oc1ccc(C(c2ccc(O)cc2)C(Cl)(Cl)Cl)cc1,Potency,[1],"inconclusive: 54.3 µM [cytotoxic, partial curve] and inconclusive: 68.6 µM [cytotoxic, single point]"
same,Potency,[2],"inconclusive: 60.9 µM [cytotoxic] and inconclusive: 48.6 µM [cytotoxic, partial curve, poor fit]"
same,activation,[3],inconclusive: 15.9% and inconclusive: 34.5%
same,Potency,[4],"inconclusive: 54.9 µM [cytotoxic, single point]"
CC(C(=O)O)c1cccc(C(=O)c2ccccc2)c1 (centres undefined),Potency,[1],inactive
same,Potency,[2],inactive
CCOc1ccc2[nH]cc(C(=O)NCc3ccccc3)c(=O)c2n1,Potency,[1],"inconclusive: 77 µM [cytotoxic, partial curve, poor fit]"
same,Potency,[5],"inconclusive: 61.1 µM [activator, partial curve, poor fit]"
same,Potency,[6],"inconclusive: 54.5 µM [falling, partial curve]"
same,Potency,[4],inactive
Cc1c(N)cccc1N,Potency,[1],inactive
same,Potency,[2],inactive
same,Potency,[3],inactive
O=C=Nc1ccc(Cl)c(Cl)c1,Potency,[7],"inconclusive: 69.9 µM [inhibitor, single point]"
CCCCCCCCOc1ccc(C(=O)O)cc1,Potency,[1],inactive
same,Potency,[5],"inconclusive: 53.9 µM [activator, partial curve]"
same,Potency,[4],inactive
N[C@@H](C(=O)N[C@@H]1C(=O)N2C(C(=O)O)=C(Cl)CS[C@H]12)c1ccccc1,"activity change, negative = inhibition",[7],inactive: -5.09% [at 10.5 µM]
CC1=CCC(C(C)C)=CC1,Potency,[1],inactive
same,Potency,[5],inactive
CCC(C)(C)OC,Potency,[1],inactive
same,Potency,[4],"inconclusive: 38.7 µM [cytotoxic, partial curve, poor fit]"
O=C1NC(=O)c2cccc3cccc1c23,Potency,[7],inactive
CCN(C(=O)N(CC)c1ccccc1)c1ccccc1,Potency,[1],"inconclusive: 68.6 µM [cytotoxic, partial curve, poor fit]"
same,Potency,[6],inconclusive: 61.1 µM
same,Potency,[3],active: 61.1 µM
CCC(=O)O[C@H]1[C@H](O[C@@H]2[C@@H](C)[C@H](O[C@H]3C[C@@](C)(OC)[C@@H](O)[C@H](C)O3)[C@@H](C)C(=O)O[C@H](CC)[C@@](C)(O)[C@H](O)[C@@H](C)C(=O)[C@H](C)C[C@@]2(C)O)O[C@H](C)C[C@@H]1N(C)C,Potency,[7],inconclusive: 52.8 µM [inhibitor]
same,Potency,[8],"inconclusive: 36.1 µM [cytotoxic, partial curve]"
same,Potency,[2],inconclusive: 40.5 µM [cytotoxic]
same,Potency,[4],active: 25.8 µM and inactive
CCc1nc(N)nc(N)c1-c1ccc(Cl)cc1,Potency,[7],inactive
same,Potency,[9],"inconclusive: 24.7 µM [cytotoxic, partial curve] and inconclusive: 27.3 µM [cytotoxic, partial curve]"
same,Potency,[10],"active: 1.75 µM and active: 3.06 µM and inconclusive: 2.98 µM [inhibitor, full curve]"
same,Potency,[2],"inconclusive: 24.7 µM [cytotoxic, partial curve] and inconclusive: 17.2 µM [cytotoxic, partial curve]"
CC(=O)C1C(=O)C=C(C)OC1=O (centres undefined),Potency,[1],inactive
same,Potency,[5],inactive
Cc1cc(C)cc(N)c1,Potency,[7],inactive
NCCS(=O)(=O)O,Potency,[1],"inconclusive: 25.3 µM [cytotoxic, partial curve]"
same,Potency,[2],"inconclusive: 25.3 µM [cytotoxic, partial curve, poor fit]"
same,Potency,[3],"inconclusive: 35.7 µM [falling, single point]"
CCCC(CC)CCCCCCCN (centres undefined),Potency,[1],"inconclusive: 62.6 µM [cytotoxic, partial curve, poor fit]"
same,Potency,[10],inactive
same,Potency,[3],"inconclusive: 55.8 µM [activator, partial curve]"
CC1(C)S[C@@H]2[C@H](NC(=O)[C@H](N)c3ccccc3)C(=O)N2[C@H]1C(=O)O,Potency,[7],"inconclusive: 99.6 µM [inhibitor, partial curve, poor fit]"
O=C=NCC1CCCC(CN=C=O)C1 (centres undefined),Potency,[1],inactive
same,Potency,[2],inactive
same,Potency,[3],inactive
Cc1cc(C2(c3cc(C)c(O)cc3C)OS(=O)(=O)c3ccccc32)c(C)cc1O,Potency,[7],"inconclusive: 39.9 µM [inhibitor, partial curve]"
same,Potency,[9],active: 24.3 µM and active: 19.3 µM
same,Potency,[5],"inconclusive: 68.6 µM [activator, single point]"
c1ccc2cc3c4ccccc4c4ccccc4c3cc2c1,Potency,[7],"inconclusive: 35.7 µM [inhibitor, partial curve, poor fit]"
same,Potency,[8],"inconclusive: 13.7 µM [cytotoxic, full curve]"
same,Potency,[9],"inconclusive: 7.73 µM [cytotoxic, full curve]"
same,Potency,[3],inactive
same,Potency,[4],active: 22 µM
COc1cc(C(=O)NCCCCCC(=O)O)cc(OC)c1OC,Potency,[1],"inconclusive: 0.106 µM [cytotoxic, single point]"
same,Potency,[2],inactive
C=CCc1ccccc1OCC(O)CNC(C)C (centres undefined),Potency,[7],inactive
CCCCN(CCCC)c1ccc(C(=O)c2ccccc2C(=O)O)c(O)c1,Potency,[1],"inconclusive: 61.7 µM [cytotoxic, partial curve]"
same,Potency,[4],"inconclusive: 17.5 µM [cytotoxic, partial curve]"
Cc1ccc(C(=O)c2cc(O)c(O)c([N+](=O)[O-])c2)cc1,Potency,[1],"inconclusive: 33.5 µM [cytotoxic, single point]"
same,Potency,[5],"inconclusive: 43.3 µM [activator, partial curve] and inconclusive: 33.5 µM [activator]"
same,Potency,[6],"inconclusive: 33.5 µM [falling, single point]"
CCn1cc(C(=O)O)c(=O)c2cc(F)c(N3CCNC(C)C3)c(F)c21 (centres undefined),Potency,[1],inactive
same,Potency,[3],inactive
CCOC(=O)[C@H](CCc1ccccc1)N[C@@H](C)C(=O)N(CC(=O)O)C1Cc2ccccc2C1,Potency,[1],"inconclusive: 33.5 µM [cytotoxic, partial curve, poor fit]"
same,Potency,[4],active: 7.56 µM
O=C1Cc2ccccc2N1c1c(Cl)cccc1Cl,Potency,[1],"inconclusive: 68.6 µM [cytotoxic, single point]"
same,Potency,[5],active: 30.6 µM
same,Potency,[6],inactive
same,activation,[3],inconclusive: -29.2%
same,Potency,[4],"inconclusive: 30.9 µM [cytotoxic, partial curve, poor fit]"
CCn1cc(C(=O)O)c(=O)c2cc(F)c(N3CCNCC3)cc21,Potency,[1],inactive
same,Potency,[10],"inconclusive: 26.6 µM [inhibitor, partial curve, poor fit]"
same,Potency,[4],inactive
O=C(Nc1cccc2c(=O)cc(-c3nn[nH]n3)oc12)c1ccc(OCCCCc2ccccc2)cc1,Potency,[1],inactive
same,Potency,[4],active: 5.35 µM
COC(=O)[C@H]1[C@H]2C[C@@H]3c4[nH]c5cc(OC)ccc5c4CCN3C[C@H]2C[C@@H](OC(=O)/C=C/c2ccc(O)c(OC)c2)[C@@H]1OC,Potency,[1],"inconclusive: 11.9 µM [cytotoxic, full curve]"
same,Potency,[6],"inconclusive: 18.8 µM [falling, partial curve]"
same,Potency,[3],"inconclusive: 8.41 µM [activator, full curve]"
O=Cc1ccccc1O,Potency,[7],"inconclusive: 89.4 µM [inhibitor, partial curve, poor fit]"
COc1cc(N)c(Cl)cc1C(=O)NC1CCN(CCCOc2ccc(F)cc2)CC1OC (centres undefined),Potency,[1],"inconclusive: 26.6 µM [cytotoxic, partial curve]"
same,Potency,[2],"inconclusive: 29.8 µM [cytotoxic, partial curve, poor fit]"
same,Potency,[6],"inconclusive: 18.8 µM [falling, partial curve]"
CCOC(=O)C1OC1c1ccccc1 (centres undefined),Potency,[7],"inconclusive: 36.3 µM [inhibitor, partial curve, poor fit]"
COCCOc1cc2cc(C(=O)NC3CCN(C(C)C)CC3)n(CC(=O)Nc3ccc(Cl)cn3)c2cn1,Potency,[8],"inconclusive: 17 µM [cytotoxic, partial curve, poor fit]"
COC(=O)/C=C/c1ccccc1,Potency,[7],"inconclusive: 39.9 µM [inhibitor, partial curve] and inconclusive: 89.4 µM [inhibitor, single point]"
same,Potency,[5],"inconclusive: 54.5 µM [activator, partial curve]"
same,activation,[3],inconclusive: -13.5%
CN1C(=O)c2ccccc2C1=O,Potency,[8],"inconclusive: 27.3 µM [cytotoxic, single point]"
same,Potency,[6],inactive
CCCCCCCCCCCCCOS(=O)(=O)O,Potency,[7],"inconclusive: 100 µM [inhibitor, single point]"
same,Potency,[4],"inconclusive: 54.9 µM [cytotoxic, single point]"
CCN(CC)CCCN(c1ccccc1)C1Cc2ccccc2C1,Potency,[8],"inconclusive: 26.6 µM [cytotoxic, partial curve, poor fit]"
same,Potency,[10],"inconclusive: 21.1 µM [inhibitor, partial curve]"
same,Potency,[4],active: 23.9 µM
CCC(C)COC(C)=O (centres undefined),Potency,[9],inactive
CCc1cc(Cl)c(OC)c(C(=O)NC[C@@H]2CCCN2CC)c1O,Potency,[8],"inconclusive: 13.3 µM [cytotoxic, single point]"
same,Potency,[11],inactive
COc1cc(C(=O)NC2CCCNC2)cc(OC)c1OC (centres undefined),Potency,[8],inactive
CCCCCCOC(=O)NC(=N)c1ccc(NCc2nc3cc(C(=O)N(CCC(=O)OCC)c4ccccn4)ccc3n2C)cc1,Potency,[7],"inconclusive: 27.5 µM [inhibitor, partial curve]"
same,Potency,[9],inactive
same,Potency,[6],active: 16.8 µM
same,Potency,[4],active: 23.9 µM
CC(C)c1nc(CN(C)C(=O)N[C@H](C(=O)N[C@@H](Cc2ccccc2)C[C@H](O)[C@H](Cc2ccccc2)NC(=O)OCc2cncs2)C(C)C)cs1,Potency,[8],inconclusive: 11.9 µM [cytotoxic]
same,Potency,[9],"inconclusive: 10.6 µM [cytotoxic, partial curve]"
same,Potency,[2],"inconclusive: 23.7 µM [cytotoxic, partial curve]"
same,Potency,[6],active: 23.7 µM
same,Potency,[4],active: 9.52 µM
